Results published in publication PMC4242493.
The other results are listed elsewhere or left out. The list includes weakly bound sequences.

Target: MaxL homodimer (UniProt P61244)
Test: universal protein-binding microarray (PBM)
Settings: PBS-based mixture, 10 nM His-tagged protein dimer, 2% milk, 200 ng/uL BSA, 50 ng/uL salmon testes DNA, 0.02% TX-100; detection with Alexa 488 anti-His …; high values mean tight binding; most listed sequences are background and not binding sites; double strand, one strand shown

Chain of UniProt P61244 (P61244 whole entry): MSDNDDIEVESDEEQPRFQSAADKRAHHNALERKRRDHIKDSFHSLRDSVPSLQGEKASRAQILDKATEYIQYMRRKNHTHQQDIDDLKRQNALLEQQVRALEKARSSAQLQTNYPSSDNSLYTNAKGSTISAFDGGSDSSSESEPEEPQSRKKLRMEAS

Sequence	binding signal (normalized occupancy)
TGAAAAAA	0.074
GAGTTTGC	0.0731
CAATTTGC	0.0711
CCGGTGAA	0.0709
ACCGCTCG	0.0704
CCCTGAAC	0.079
TACATGGA	0.0848
CCCGCACG	0.0845
CAAGAACA	0.075
AACGTTCG	0.0711
ATCGGACC	0.0691
ATGCCTAG	0.0767
AAACACAC	0.0879
ATCTGGGG	0.0754
ACTCGAGG	0.0766
ACACCTAT	0.0786
GTAGCCAC	0.0749
GCTACCAA	0.0737
AGTCGTGG	0.0775
AGATGCTG	0.078
CGGCCACG	0.0871
CGTCGTAC	0.0758
TCCGGCCA	0.0655
AGCGTATC	0.0784

Sequence	binding signal (normalized occupancy)
TAGAGTCA	0.0824
GAATTGTC	0.0721
GAGACTAA	0.0684
CAATTTGA	0.0713
CCCTATTC	0.0783
GCACATGA	0.12
TTATTAAA	0.0787
CAACGTGC	0.122
CGCATTTC	0.0783
ACGGAAGG	0.0728
ACATACAG	0.0868
GTGTACTA	0.0798
CATAGCGC	0.0707
ATTCAGCG	0.0733
AGGATTCC	0.071
GGAACCCC	0.0696
CCAAAACA	0.0783
CACCACGC	0.119
CCGAACCC	0.0766
ACTGGGCT	0.0665
AGGCACAA	0.0747
AAGCTACG	0.0726
CTTCACTA	0.0774
AATCCCAC	0.0848

Sequence	binding signal (normalized occupancy)
AACGGGAG	0.0711
GCCTGCAC	0.0692
GTAGCCGA	0.0653
CTACAGAA	0.075
GGACACCC	0.0753
GTATGTCA	0.0841
AATTATTG	0.0729
AGGGGTTG	0.0811
GCTCATAC	0.0755
CCGCACGA	0.0824
CGATTGTC	0.0706
ATTCCGCG	0.0718
CATATTGG	0.0794
TGCTAGAA	0.0722
AAGTATCT	0.0762
TCGGGACA	0.0752
AACCCTCA	0.078
CAATTAGC	0.0696
ATCATTGA	0.0818
GACGGACC	0.0664
CAGCGGAA	0.0674
TCATTAAA	0.0798
ACATTCAT	0.0895
AGCATAGG	0.0718

Sequence	binding signal (normalized occupancy)
GACGTTGC	0.0687
CAAAAGGG	0.0694
AACGAGCA	0.0804
GTATGTAA	0.086
CCTGATCA	0.0815
AACAAAAG	0.0736
CGGGCGAC	0.071
CTGCATAA	0.0739
ATTTGTGA	0.0802
ATTACATA	0.0851
AATCTACG	0.0693
AGCGTTCA	0.0757
GCAACTTA	0.0721
CACACGCG	0.124
CCTAACAG	0.0728
CGGTGGCA	0.0801
ATACAGGC	0.0763
GCAAGAGA	0.0745
GGTAGGAA	0.0713
TAATAGAA	0.0818
ACAAAGTC	0.0679
GTAGTGTA	0.0717
